Results as given in PMC3438969 (The Journal of Biological Chemistry, 2012).

Target: T1, HscA SBD (substrate-binding domain, residues 389-616) (UniProt P0A6Z1 389-616)
T1 sequence (looked up): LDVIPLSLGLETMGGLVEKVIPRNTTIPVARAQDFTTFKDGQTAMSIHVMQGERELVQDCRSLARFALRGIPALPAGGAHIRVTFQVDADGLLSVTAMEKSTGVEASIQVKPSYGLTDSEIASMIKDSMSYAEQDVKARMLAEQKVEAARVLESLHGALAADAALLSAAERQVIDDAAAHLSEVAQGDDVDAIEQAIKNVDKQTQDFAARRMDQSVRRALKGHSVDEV
Assay: NMR titration

binding result: binds
B1: apo-IscU (iron-sulfur cluster scaffold protein IscU) (natural protein, Escherichia coli)
chain: MAYSEKVIDHYENPRNVGSFDNNDENVGSGMVGAPACGDVMKLQIKVNDEGIIEDARFKTYGCGSAIASSSLVTEWVKGKSLDEAQAIKNTDIAEELELPPVKIHCSILAEDAIKAAIADYKSKREAK
